# Data as given in article PMC4336329 (PLoS ONE, 2015).
# Screen size: about 310,000 compounds; about 2,200 (0.71%) showed an effect of 50% or more. The effect is printed as a negative number. The list shows a part of the results.
# Molecular target: human ether-à-go-go-related gene (hERG) potassium channel (human, UniProt Q12809)
# Experiment: primary screen, population patch clamp on CHO cells stably expressing hERG
# human ether-à-go-go-related gene (hERG) potassium channel, sequence (Q12809 whole entry, looked up): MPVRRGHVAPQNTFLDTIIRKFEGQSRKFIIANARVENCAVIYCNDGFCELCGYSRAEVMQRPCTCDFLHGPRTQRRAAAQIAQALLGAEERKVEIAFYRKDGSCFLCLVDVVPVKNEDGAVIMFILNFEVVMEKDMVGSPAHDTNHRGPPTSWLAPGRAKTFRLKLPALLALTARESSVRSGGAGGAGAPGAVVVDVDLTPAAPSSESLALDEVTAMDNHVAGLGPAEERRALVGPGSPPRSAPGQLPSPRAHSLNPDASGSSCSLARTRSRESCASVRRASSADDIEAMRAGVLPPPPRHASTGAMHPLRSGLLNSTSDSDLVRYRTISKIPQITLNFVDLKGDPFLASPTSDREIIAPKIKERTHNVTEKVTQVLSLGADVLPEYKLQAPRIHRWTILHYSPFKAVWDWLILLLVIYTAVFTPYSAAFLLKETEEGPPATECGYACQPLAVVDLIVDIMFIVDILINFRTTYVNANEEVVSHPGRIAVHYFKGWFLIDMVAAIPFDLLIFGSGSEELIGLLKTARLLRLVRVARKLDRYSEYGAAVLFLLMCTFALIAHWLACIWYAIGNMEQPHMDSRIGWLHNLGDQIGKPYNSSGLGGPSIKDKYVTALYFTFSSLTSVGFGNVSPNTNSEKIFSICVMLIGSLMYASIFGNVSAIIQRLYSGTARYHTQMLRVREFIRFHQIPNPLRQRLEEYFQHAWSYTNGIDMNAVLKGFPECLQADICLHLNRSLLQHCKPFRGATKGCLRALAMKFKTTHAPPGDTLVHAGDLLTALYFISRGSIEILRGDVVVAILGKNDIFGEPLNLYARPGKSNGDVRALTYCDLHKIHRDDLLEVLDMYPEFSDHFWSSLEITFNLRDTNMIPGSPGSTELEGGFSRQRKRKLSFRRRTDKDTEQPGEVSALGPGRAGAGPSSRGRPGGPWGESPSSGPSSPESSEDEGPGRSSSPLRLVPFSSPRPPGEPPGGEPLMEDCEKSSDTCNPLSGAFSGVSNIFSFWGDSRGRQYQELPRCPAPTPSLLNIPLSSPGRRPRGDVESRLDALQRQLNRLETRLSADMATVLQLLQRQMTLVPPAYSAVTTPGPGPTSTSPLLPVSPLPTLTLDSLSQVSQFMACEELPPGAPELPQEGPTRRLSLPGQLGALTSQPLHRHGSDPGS
row,SMILES,"hERG current change (%, negative = inhibition) at 1uM"
1,CN(C(=O)C(Cl)Cl)C1CC2C=CC1C2 (centres unmarked),14.6%
2,CCCN(CCC)Cc1c(C(=O)N/N=C/C(C)=C\c2ccccc2)nnn1-c1nonc1N,31%
3,CC1CCN(C(=O)COC(=O)c2cc(Cl)cc(Cl)c2N)CC1,-2.25%
4,O=C1CC(SCc2nc3ccccc3[nH]2)C(=O)N1c1ccc(F)cc1 (centres unmarked),9.76%
5,Cc1ccc(C(C(=O)NC2CCCC2)N(C(=O)Cc2cccs2)c2ccc(C)c(C)c2)o1 (centres unmarked),-22.8%
6,Cc1ccc(NC2CCCN(C(=O)c3cnsn3)C2)cc1C (centres unmarked),14.3%
7,COc1ccccc1N1CCN(/N=C(\C)c2ccc(O)cc2)CC1,14.2%
8,Cc1ccccc1NS(=O)(=O)c1ccc(-c2ccc(=O)[nH]n2)o1,-4.49%
9,CCCCN(C(=O)Cc1ccc(S(=O)(=O)N2CCOCC2)s1)c1ccccc1,2.22%
10,Cc1cc(NS(=O)(=O)c2ccc(NC(=O)c3cc(-c4cccnc4)nc4ccc(Cl)cc34)cc2)no1,1.9%
11,Cc1cccc(NC(=O)c2cc(NC(=O)c3ccccc3)ccc2N2CCCCC2)c1,3.79%
12,CC1=CC(C)(C)N(C(=O)CSc2nccn2C)c2cc(C)ccc21,12.4%
13,CC(C)O.COc1cccc(C2C3=C(CC(C)(C)CC3=O)Nc3n[nH]c(C)c32)c1 (centres unmarked),6.07%
14,COc1ccc(N2CCN(CCCNC(=O)C(=O)c3c[nH]c4ccccc34)CC2)cc1,-40.6%
15,NC(=O)C1CCN(C(c2ccccc2Cl)c2nnnn2Cc2ccc3c(c2)OCO3)CC1 (centres unmarked),1.07%
16,COc1ccc(Cn2nnnc2C(c2cc3cc(C)ccc3[nH]c2=O)N2CCOCC2)cc1 (centres unmarked),-18.5%
17,CCC(=O)Nc1ccc(C(=O)CSc2nc(N)cc(N)n2)cc1,5.66%
18,CC12CCC(C(=O)NCc3ccccc3Cl)(C(Br)C1=O)C2(C)C (centres unmarked),14.2%
19,COC(=O)C1CCN(C(=O)c2ccccc2Oc2ccccc2)CC1,10.6%
20,O=C(N/N=C/c1ccc(C(=O)O)cc1)C1=NNC(c2ccccc2)(c2ccccc2)C1,6.8%
21,Cc1cccc(/C=N\N=C\c2cccc(C)c2)c1,15.3%
22,O=C(CN(Cc1ccc(F)cc1)C(=O)CNS(=O)(=O)c1ccc(F)cc1)NCc1ccco1,12.8%

row,SMILES,"hERG current change (%, negative = inhibition) at 1uM"
1,COc1cc(NS(=O)(=O)c2ccc(C)c(C)c2)c(OC)cc1Cl,-7.73%
2,COc1ccc(S(=O)(=O)Cc2ccc(C(=O)N3CCCC3)o2)cc1,12.5%
3,O=C(N/N=C/c1cccs1)c1ccccn1,9.21%
4,Cc1cccc(Nc2nc(-c3ccc(F)c(C)c3)cs2)n1,17%
5,CN(CCc1cn[nH]c1)C(=O)CC1C(=O)NCCN1Cc1ccccc1C(F)(F)F (centres unmarked),3.96%
6,O=[N+]([O-])/C(C(Cl)=C(Cl)Cl)=C1\Nc2ccccc2O1,12.8%
7,C/C(=N\NC(=O)COc1cccc(C)c1)c1ccc2ccccc2c1O,12.3%
8,Cc1cc(OC2CCCCC2)nc(-c2ccccc2O)n1,17%
9,COc1ccc(N2CCN(C(=O)Cn3nnc(-c4ccc(N(C)C)cc4)n3)CC2)cc1,4.37%
10,Cc1ccc(Nc2cc(C)nc3nc(C)nn23)cc1,-3.09%
11,COCCn1c(SCC(=O)N2CCCC(C)C2)nnc1-c1ccco1 (centres unmarked),15.2%
12,Cc1ccc2c(c1)S/C(=C/c1ccc[n+](CCO)c1)N2C.[I-],21.4%
13,Cc1ncn(C23CC4CC(CC(O)(C4)C2)C3)n1,2.55%
14,COC(=O)[C@H]1C[C@@H]1[C@H](NC(=O)c1cnccn1)c1ccccc1,8.65%
15,Cc1ccc(-n2c(C)nc3ccsc3c2=O)cc1,6.07%
16,COc1ccc(-c2nnn(CC(=O)N(C3CCCC3)C(C)C(=O)NC3CCCC3)n2)cc1OC (centres unmarked),-15.8%
17,C=CCc1cccc(/C=N/NC(=O)C(C)Nc2cccc(C)c2)c1O (centres unmarked),9.73%
18,CCCCN(C)C(=S)Nc1ccc2nc(N3CCN(CC)CC3)cc(C)c2c1,-46.4%
19,CCCCN(CCCC)Cc1ccc(N)cc1,2.73%
20,CC(C)N(CCNC(=O)c1ccc(OCC2CCCO2)cc1)C(C)C (centres unmarked),15.9%
21,COc1cccc(NC(=O)COc2ccccc2)c1,8.86%
22,CN(C(=S)Nc1ccc(SC(F)F)cc1)C(c1ccccc1)c1ccccc1,6.2%
